According to PubChem BioAssay (NCI):
Values joined by “and” are separate entries in the source; they are usually repeats but may differ in a detail not shown here. Identical values can stand only once.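 Five compound concentrations were applied to cells in 96-well plates for 48 hours; endpoints were derived by simple linear interpolation of the resulting dose-response curve. GI50 marks 50% less growth. TGI: total growth inhibition.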

Tested on: NCI-H322M lung
Assay: NCI anticancer screen, dose series, 48 h

Structure (SMILES) | TGI | GI50
CN1CCN(CC(=O)N2CCCn3c2nc2ccccc2c3=O)CC1 | > 100 µM | 
COc1ccc(C2C(C#N)=C(O)NC(O)=C2C#N)cc1OC | > 100 µM | 
O=C(O)CCN1CCN(CCC(=O)O)CCN(CCC(=O)O)CC1 | > 100 µM | 
N#Cc1c(N2CCCC2)ncn(-c2ccccc2)c1=S | > 100 µM | 
COc1cccc(CC2C(=O)N=C(NC(C)=O)N2C)c1OC(C)=O (stereo unspecified) | > 100 µM | 
O=C1OC(c2ccccc2)=N/C1=C\c1ccc(Cl)cc1 | > 100 µM | 
CN=c1ss/c(=N\C(=S)N(C)C)n1-c1ccccc1 | > 100 µM | 
Clc1ccc(CNc2ccc3nc(CCC4CCCCC4)[nH]c3c2)cc1 | > 100 µM | 3.16 µM
CCn1c(-c2nonc2N)nc2c(C#CC(C)(C)O)nc(CN3CCCC3)cc21 | > 25 µM | > 25 µM
COc1cc(C2S/C(=C/c3ccccc3)C(=O)N2c2cccc(Cl)c2)cc(OC)c1OC (stereo unspecified) | > 100 µM | 
Cc1cc(S(=O)(=O)NC2=NCC(C)NN2)c(S)cc1Cl (stereo unspecified) | > 100 µM | 
NC1CCCCC1N.O=C([O-])c1cc(S(=O)(=O)Nc2cc(S(=O)(=O)[O-])cc3cc(S(=O)(=O)[O-])cc(O)c23)ccc1[O-].[Pt+4] | > 100 µM | > 100 µM
Cc1cc2c(=O)cc(-c3cccs3)oc2c(C(=O)O)c1C | > 100 µM | 
CC(=O)CC(=O)Nc1ccccc1[N+](=O)[O-] | > 100 µM | 
O=C1C(NCCF)=C(Cl)C(=O)c2ncccc21 | 2.21 µM | 
CS(=O)(=O)CCN(CC#N)Cc1ccc(-c2ccc3ncnc(Nc4ccc(OCc5cccc(F)c5)c(Cl)c4)c3c2)o1 | > 25 µM | 1.94 µM
N#C/C(=C/NC(=S)NCc1ccccc1)C(N)=O | > 100 µM | 
CC(C)(O)/C=C/C(=O)[C@](C)(O)[C@H]1[C@H](O)C[C@@]2(C)[C@@H]3CC=C4[C@@H](C=C(O)C(=O)C4(C)C)[C@]3(C)C(=O)C[C@]12C | > 10 µM and 7.9 µM | 
COC(=O)CN1Cc2cc(C)cc(c2O)CN(CC(=O)OC)Cc2cc(C)cc(c2O)CN(CC(=O)OC)Cc2cc(C)cc(c2O)C1 | > 100 µM | 
COc1ccc2c(C)cc(C)nc2n1 | > 100 µM | 
O=C(CC1C(=O)Nc2ccccc2S1(=O)=O)Nc1cc(Cl)ccc1Cl (stereo unspecified) | 60.8 µM | 
CCN(CC)CCOCCn1c2c(c3ccccc31)CCCC2 | > 100 µM | 
